# Whole data set: some 33,000 sequences, median “E-score (-0.5 to 0.5)” near -0.012, cut for the highest 2% near 0.29. Some of the results follow.
# Target: T1, Ybr033w (UniProt P38073)
# T1 sequence: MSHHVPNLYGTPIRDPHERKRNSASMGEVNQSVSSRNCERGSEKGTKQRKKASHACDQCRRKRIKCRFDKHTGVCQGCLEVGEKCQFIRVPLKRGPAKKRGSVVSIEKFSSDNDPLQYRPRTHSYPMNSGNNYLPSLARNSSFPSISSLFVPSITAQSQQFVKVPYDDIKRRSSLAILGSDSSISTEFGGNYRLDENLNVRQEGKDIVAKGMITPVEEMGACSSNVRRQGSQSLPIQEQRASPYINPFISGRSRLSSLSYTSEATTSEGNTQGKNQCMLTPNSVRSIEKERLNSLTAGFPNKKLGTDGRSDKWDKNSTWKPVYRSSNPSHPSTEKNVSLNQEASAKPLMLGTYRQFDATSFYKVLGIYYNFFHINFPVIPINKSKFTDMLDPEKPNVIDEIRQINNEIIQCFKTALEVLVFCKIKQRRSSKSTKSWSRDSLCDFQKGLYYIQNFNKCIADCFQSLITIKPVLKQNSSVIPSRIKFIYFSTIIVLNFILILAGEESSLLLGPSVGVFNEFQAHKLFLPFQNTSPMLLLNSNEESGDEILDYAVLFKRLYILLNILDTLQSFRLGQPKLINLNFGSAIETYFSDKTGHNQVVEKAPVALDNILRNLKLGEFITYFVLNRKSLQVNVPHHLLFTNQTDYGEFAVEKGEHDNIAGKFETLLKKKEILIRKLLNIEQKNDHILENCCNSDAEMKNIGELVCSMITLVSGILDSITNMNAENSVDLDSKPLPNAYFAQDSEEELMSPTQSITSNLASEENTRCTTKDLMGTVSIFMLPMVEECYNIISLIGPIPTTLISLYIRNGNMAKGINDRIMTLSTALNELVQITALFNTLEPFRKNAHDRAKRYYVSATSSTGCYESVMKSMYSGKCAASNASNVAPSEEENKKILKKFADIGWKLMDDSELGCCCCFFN
# Assay: PBM E-score (8-mer binding enrichment) (E-score (-0.5 to 0.5)); higher = stronger / more preferred TF binding; most listed sequences are background and not binding sites
# Conditions: protein concentration: 200 nM; construct: GST-full length
# Experimental: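 Universal 'all 10-mer' protein binding microarrays (Agilent AMADID 015681) probed with GST-tagged S. cerevisiae TFs (full-length or DBD) made by in vitro transcription/translation (PURExpress), about 100-200 nM. Bound TF was detected with fluorescent anti-GST. Each ungapped 8-mer (which stands for itself and its reverse complement) is scored by the PBM enrichment score (E-score), a modified Wilcoxon-Mann-Whitney statistic from -0.5 to +0.5, computed with the Universal PBM Analysis Suite. Scale: above 0.35 generally sequence-specific binding.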
row,Sequence,PBM E-score
1,AAAACCCA,0.162
2,CGCAGGGA,-0.202
3,CAGGCCTG,-0.162
4,ACTCGATG,0.166
5,ATAAGCCC,-0.102
6,GGATACGA,-0.0493
7,CTTCGTAA,0.0295
8,CCTAATAA,-0.0059
9,CATCTAGG,-0.154
10,CCCCAAAA,-0.0727
11,ATATACGG,-0.0113
12,ATGATAAA,0.238
13,ACTGCAGG,-0.127
14,GGGTTCCA,-0.178
15,CTTCAAGC,-0.121
16,GTGCTATA,0.111
17,GAGCCCTC,-0.263
18,CAGAGTTA,0.029
19,CCACCCGA,-0.0408
20,ACGATTGA,0.0167
21,CGACCGTA,-0.299
22,GGTATACA,0.00479

row,Sequence,PBM E-score
1,CCGGCCCG,-0.296
2,ATAGGAAC,0.149
3,ATACCTTG,0.0969
4,AAACAGAG,0.065
5,AGGCATAT,-0.0364
6,CATTTGCG,0.0935
7,ATCCCTCA,-0.0498
8,AATACTCT,0.298
9,CTAGCCAA,0.217
10,AGTGCGAA,-0.0815
11,CGTACCCA,-0.126
12,AGAATCTC,-0.0698
13,TACGTTAA,0.0894
14,GTTGGAAA,0.0196
15,ATTACGGC,0.0786
16,GCTCATTA,0.104
17,ATAATTTA,0.338
18,AGAAGACT,-0.125
19,ACGTCCAG,-0.138
20,GCCGGCAA,-0.0249
21,ACCTAGGA,0.0448
22,CTATTGTA,0.249

row,Sequence,PBM E-score
1,AAAGGGAG,-0.364
2,CGCTTGTA,-0.0741
3,GAGTCACC,-0.213
4,AACTTACT,-0.0103
5,GGAATGCC,0.0217
6,ACGCCAGG,-0.207
7,CAGCTAAC,-0.157
8,CCGATGTC,-0.0513
9,TCATCTCA,0.105
10,ATATCTTA,0.281
11,ACACTGGG,-0.161
12,AATAGGTA,0.193
13,AAGTTCTA,0.198
14,CGACCTTA,-0.0779
15,CGGTGGCA,-0.352
16,TTATTGAA,0.114
17,AAAACCAT,0.18
18,AGATGTGC,0.0868
19,AGCACCAG,-0.0513
20,TAACGAGA,0.0739
21,GCACCACA,-0.162
22,CCGCCTCC,-0.343

row,Sequence,PBM E-score
1,CCCATGGA,-0.0602
2,CATTGAAA,0.29
3,ATTCATGG,-0.005
4,AGCTGTAC,-0.197
5,GCCGCTAA,-0.00387
6,CGCCAAGA,-0.288
7,ATACATGA,0.208
8,CAATTCTA,0.114
9,ACCTGCAA,-0.0757
10,GATCTGCA,-0.215
11,TAATTTAA,0.343
12,AGAACCAT,0.148
13,CATAGTCC,-0.0337
14,TCTTCTAA,0.17
15,ACGCAAGC,0.0685
16,ATGATCAC,0.071
17,AAACCTAC,0.141
18,ACCCGCAG,0.076
19,CACCGTGA,-0.183
20,ACGCCGCT,-0.167
21,GGTCATTA,-0.0229
22,AACATATT,0.285

row,Sequence,PBM E-score
1,AAGCCGCC,-0.223
2,AGAGTACC,0.062
3,ACTAAGGG,-0.121
4,CTTCTCTA,-0.0199
5,AATACCTC,0.132
6,AGCAGTTA,0.0896
7,GGATGAAA,0.147
8,CTTCTAGC,-0.255
9,CATGGAAC,-0.126
10,CTCAAGAA,0.129
11,CCACTGCC,-0.0837
12,AACACCAT,0.0922
13,ACAAAAAT,0.308
14,ATCTTAGC,-0.102
15,AGAAGTGA,0.0863
16,CGGCGTAC,-0.182
17,GCATTAAA,0.147
18,AACGCAAA,0.0338
19,ATAACGCG,0.022
20,CCGAAGGC,-0.11
21,ACTACTCG,0.154

# Reference: the supplement of paper PMC3334620
